Among all 270,000 compounds or so, about 5,800 (2.1%) were called active. Inconclusive means that the source gave no clear call. Such entries were picked first, then a sample of the others. Calls come from the whole dose curve; as a rule, active = well fitted inhibition curve with a large enough effect; inconclusive = small, poorly fitted or top-dose-only effect; inactive = flat fitted curve, though single readings scatter. Where the call is inconclusive, the potency comes from a doubtful curve fit.
Each compound was assayed against Microtubule-associated protein tau (Homo sapiens) (UniProt P10636) (assay: qHTS for Inhibitors of Tau Fibril Formation, Thioflavin T Binding). Settings: recombinant tau K18 P301L (four-repeat tau fragment), heparin-induced fibrillization, ThT fluorescence; series mostly up to 57.4 µM.
UniProt P10636, sequence (P10636 whole entry, looked up, the tested form may be a part): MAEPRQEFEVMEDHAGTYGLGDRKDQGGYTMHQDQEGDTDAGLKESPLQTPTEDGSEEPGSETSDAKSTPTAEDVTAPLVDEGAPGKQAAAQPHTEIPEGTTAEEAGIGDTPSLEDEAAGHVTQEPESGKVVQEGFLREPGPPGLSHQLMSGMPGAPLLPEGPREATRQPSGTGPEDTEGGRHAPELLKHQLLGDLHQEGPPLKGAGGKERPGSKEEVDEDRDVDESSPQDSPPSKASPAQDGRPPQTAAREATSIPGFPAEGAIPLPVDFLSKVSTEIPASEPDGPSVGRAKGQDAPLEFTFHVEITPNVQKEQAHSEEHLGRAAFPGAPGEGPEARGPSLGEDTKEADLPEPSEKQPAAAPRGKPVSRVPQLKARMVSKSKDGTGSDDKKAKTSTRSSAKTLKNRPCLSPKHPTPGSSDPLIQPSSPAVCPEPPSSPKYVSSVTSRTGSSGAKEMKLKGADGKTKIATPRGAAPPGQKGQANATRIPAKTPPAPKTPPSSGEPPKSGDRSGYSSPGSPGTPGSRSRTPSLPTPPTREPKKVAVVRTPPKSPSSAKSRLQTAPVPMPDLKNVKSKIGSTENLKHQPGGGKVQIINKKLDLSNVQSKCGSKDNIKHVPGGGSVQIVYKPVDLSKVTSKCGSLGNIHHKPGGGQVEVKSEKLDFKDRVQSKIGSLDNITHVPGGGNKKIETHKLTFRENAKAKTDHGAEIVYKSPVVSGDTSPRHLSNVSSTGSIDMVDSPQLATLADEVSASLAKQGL
Summary of the method: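 Aggregation was driven by heparin (20 uM final) acting on recombinant tau […] bearing P301L in 100 mM sodium acetate pH 7; fibrils were detected with Thioflavin T.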
Note: nearly all actives have a fitted effect of over 55% in size.
Potency is the fitted concentration of half-maximal effect; tags give direction and shape of the fitted curve.

| Compound | Potency |
| --- | --- |
| Cc1cccc(C)c1Nc1c(-c2ccccn2)nc2ccccn12 | inconclusive: 39.8 µM [inhibitor, single point] |
| O=C(Cn1ncc2c(=O)oc3ccccc3c21)NCC1CCCO1 (stereo unspecified) | inactive |
| Cc1cccc(NC(=O)C(Cc2ccccc2)N2Cc3ccccc3C2=O)c1C (stereo unspecified) | inactive |
| O=C(N/N=C/c1ccccc1)c1[nH]c2ccc(Br)cc2c1-c1ccccc1 | inactive |
| CC(=O)NC1=NC(=O)/C(=C/c2cc(C)n(-c3ccc(NC(C)=O)cc3)c2C)S1 | inconclusive: 12.6 µM [inhibitor, partial curve] |
| O=C(NC(=S)Nc1ccc(N2CCOCC2)c(Cl)c1)c1sc2ccccc2c1Cl | inconclusive: 6.31 µM [inhibitor, partial curve] |
| CCc1ccc(CNC(=O)c2ccc(-n3c(C)cc4c3CCC(C)C4)cc2)cc1 (stereo unspecified) | inconclusive: 11.2 µM [inhibitor, partial curve] |
| O=C(Nc1cc(Cl)cc(Cl)c1)C(NCCO)c1ccccc1 (stereo unspecified) | inactive |
| COc1ccc(NS(=O)(=O)c2ccc(NC(=O)c3ccc(CN4CCOCC4)cc3)cc2)cc1 | inactive |
| Nc1cccc(CCc2nc3cc4ccccc4cc3[nH]2)c1 | inconclusive: 15.8 µM [inhibitor, partial curve] |
| Brc1ccc(-c2csc(N3CCC(c4ccccc4)C3)n2)cc1 (stereo unspecified) | inconclusive: 8.91 µM [inhibitor, partial curve] |
| c1ccc(-c2cc(-c3nnc4n3N=C(c3ccc5ccccc5c3)CS4)[nH]n2)cc1 | inconclusive: 11.2 µM [inhibitor, partial curve] |
| Cc1cc(C)c(C#N)c(N2CCN(CCOc3ccc(Cl)cc3)CC2)n1 | inconclusive: 17.8 µM [inhibitor, single point] |
| COc1ccc(CNC(=O)Cn2c(=O)n3nc(-c4cccc(F)c4)nc3c3ccccc32)cc1OC | inactive |
| O=C(COC(=O)/C=C/c1cccs1)NC(c1ccccc1)c1ccccc1 | inactive |
| O=C1N/C(=C/c2ccc(N3CCCC3)cc2)C(=O)N1c1ccccc1 | inconclusive: 2.24 µM [inhibitor, partial curve] |
| Cc1cccc(N/C=C/c2onc(C)c2[N+](=O)[O-])c1 | inconclusive: 1.12 µM [inhibitor, full curve] |
| Nc1ccc(C(=O)N/N=C2\CCCc3c2[nH]c2ccccc32)cc1 | inconclusive: 8.91 µM [inhibitor, partial curve] |
| N#Cc1cc2c(nc1SCc1nc3ccccc3[nH]1)CCC2 | active: 6.31 µM |
| CN1CC[n+]2cnc3ccccc3c21 | inactive |
| Cc1ccc(-c2nc3ccccc3nc2NN)cc1 | inconclusive: 11.2 µM [inhibitor, partial curve, poor fit] |
| Cc1ccc(C2c3[nH]c4ccccc4c3CCN2C(=O)CSc2ccccc2)cc1 (stereo unspecified) | inactive |
| Cc1cc(C=O)c(C)n1-c1ccc(N2CCCCC2)c([N+](=O)[O-])c1 | inconclusive: 25.1 µM [inhibitor, single point] |
| Nc1ccc(Oc2ccc([N+](=O)[O-])cc2[N+](=O)[O-])cc1 | inconclusive: 28.2 µM [inhibitor, partial curve] |

| Compound | Potency |
| --- | --- |
| Cc1nn(-c2ccc(Cl)cc2)c(Cl)c1/C=C(\C#N)C(N)=O | inconclusive: 12.6 µM [inhibitor, partial curve] |
| COc1ccc(-c2ccc(=O)n(CC(=O)Nc3ccccc3C(F)(F)F)n2)cc1 | inconclusive: 31.6 µM [inhibitor, single point] |
| Cc1cc(=O)[nH]c(N=N/C(=N/Nc2ccccc2C)c2ccccc2)n1 | inconclusive: 4.47 µM [inhibitor, full curve] |
| CCC1(C)N(O)C(C)(C)C(c2ccc(F)cc2)=[N+]1[O-] (stereo unspecified) | inactive |
| CCOC(=O)c1nnc(-c2ccc(C)cc2)nc1Oc1ccc(Cl)cc1Cl | inconclusive: 11.2 µM [inhibitor, partial curve] |
| O=C(CCCc1c[nH]c2ccccc12)NCC1COc2ccccc2O1 (stereo unspecified) | inconclusive: 20 µM [inhibitor, partial curve, poor fit] |
| O=[N+]([O-])c1ccc2nc(-c3ccc(OC(F)F)cc3)cn2c1 | inconclusive: 0.631 µM [inhibitor, full curve] |
| CSc1nc2sc3c(c2c2nncn12)CCC3 | inactive |
| COC(=O)c1ccccc1NC(=O)c1sc(=S)n(C)c1N | inconclusive: 25.1 µM [inhibitor, single point] |
| COc1cccc(/C=N/Nc2ncnc(Cl)c2N)c1O | inconclusive: 6.31 µM [inhibitor, partial curve] |
| CCCCCC1=C2CNC(CC(C)C)(C(=O)OC)C=C2C(C)C1=O (stereo unspecified) | inconclusive: 15.8 µM [inhibitor, single point] |
| Cc1ccccc1Nc1ccc(S(=O)(=O)N2CCOCC2)cc1[N+](=O)[O-] | inactive |
| O=C(CSc1ncnc2c1nnn2-c1ccc(F)cc1)NCc1ccco1 | inconclusive: 15.8 µM [inhibitor, partial curve] |
| Cc1nc(C)c(C(=O)Nc2ncc([N+](=O)[O-])s2)o1 | active: 25.1 µM |
| COc1ccc(-c2noc(CCC(=O)NCCc3cccc(C)c3)n2)cc1 | inconclusive: 3.55 µM [inhibitor, partial curve] |
| COC(=O)NC(c1ccc2c(c1)OCO2)C(C(=O)OC)C(=O)OC (stereo unspecified) | inactive |
| Cc1ccc(-n2nc(C)c3c2OC(N)=C(C#N)C3c2ccccc2F)cc1 (stereo unspecified) | inconclusive: 12.6 µM [inhibitor, partial curve] |
| c1cc(CNc2ccc(N3CCOCC3)cc2)ccn1 | active: 22.4 µM |
| Cc1ccc(-n2c(-c3cccc(C)c3)nc3c(cnn3-c3ccccc3)c2=O)cc1 | inconclusive: 12.6 µM [inhibitor, partial curve] |
| CC(=O)Nc1cccc(/C(C)=N/NC(=O)c2ccc(CN3CCOCC3)cc2)c1 | inconclusive: 7.94 µM [inhibitor, partial curve, poor fit] |
| COCc1[nH]nc2c1C(c1ccccc1Cl)C(C#N)=C(N)O2 (stereo unspecified) | inactive |
| Cc1ccccc1OCC(=O)Nc1nnc(S(=O)(=O)N2CCCCCC2)s1 | active: 3.16 µM |
| C=CCn1c(=O)/c(=C/c2ccc(O)cc2)s/c1=C(/C#N)c1nnc2n1CCCCC2 | inconclusive: 22.4 µM [inhibitor, single point] |
| O=C(NCCCN1CCN(c2ccccc2)CC1)c1ccc2nc(CCc3ccccc3)oc2c1 | inconclusive: 28.2 µM [inhibitor, partial curve, poor fit] |

| Compound | Potency |
| --- | --- |
| CCOC(=O)c1c(C)n(C)c2cc(Br)c(O)c(O)c12 | inconclusive: 8.91 µM [inhibitor, partial curve] |
| CCOc1ccc(Nc2oc(-c3cccs3)nc2C#N)cc1 | inconclusive: 8.91 µM [inhibitor, partial curve] |
| O=C1C=C(O)C(n2cncn2)C(c2ccc3c(c2)OCO3)C1 (stereo unspecified) | inconclusive: 14.1 µM [inhibitor, single point] |
| Nc1ncnc2c1nc(Br)n2[C@@H]1O[C@H]2COP(=O)(O)O[C@@H]2[C@@H]1O | inactive |
| CC(C)(C)c1cc(-c2csc(Nc3ccccc3)[n+]2Cc2ccc(C(=O)O)cc2)cc(C(C)(C)C)c1O | inconclusive: 31.6 µM [inhibitor, partial curve] |
| Oc1ccc(-n2cnnn2)cc1 | inconclusive: 28.2 µM [inhibitor, single point] |
| CCN(C(=O)COc1cccc2cccnc12)C1CCS(=O)(=O)C1 (stereo unspecified) | active: 25.1 µM |
| CCOc1ccc(C(=O)c2cn(CC(=O)Nc3ccc(F)c(F)c3)c3cc4c(cc3c2=O)OCCO4)cc1 | inactive |
| Cc1ccc(C2NCCS2)cc1 (stereo unspecified) | active: 22.4 µM |
| CCOc1cccc(-c2nnc3sc(-c4ccc(C)cc4)nn23)c1 | inconclusive: 10 µM [inhibitor, partial curve] |
| Cc1ccc(C)c(NC(=O)c2cc(-c3ccccc3)nn2-c2ccccc2)c1 | inconclusive: 10 µM [inhibitor, partial curve] |
| Cc1ccc(C)n1-c1ccc(C(=O)Nc2ccccc2)cc1 | inconclusive: 15.8 µM [inhibitor, partial curve] |
| O=C(Nc1ccccc1)c1ccc2c(O)c(S(=O)(=O)c3ccc(Cl)cc3)c(=O)[nH]c2c1 | inactive |
| N#CC1=C(c2ccc(-c3ccccc3)cc2)COC1=O | inconclusive: 20 µM [inhibitor, partial curve] |
| COc1ccc(-c2noc(-c3nnn(-c4ccc(C(C)C)cc4)c3C)n2)cc1OC | inconclusive: 3.98 µM [inhibitor, full curve] |
| CCOC(=O)C1C(=O)C=C(c2cccc(NS(C)(=O)=O)c2)CC1c1ccco1 (stereo unspecified) | inactive |
| Cc1cc(Nc2cccc(Cl)c2)nc2ccc(NC(=O)c3cccc(N(C)C)c3)cc12 | inconclusive: 2.51 µM [inhibitor, full curve] |
| O=C(O)C1CCCCC1C(=O)NCCc1cccc(Cl)c1 (stereo unspecified) | inactive |
| Cc1ccc(Cc2cnc(N)s2)o1 | inconclusive: 25.1 µM [inhibitor, partial curve] |
| CCOc1ccccc1C(=O)Nc1ccc2nc3c(c(Nc4ccc(OC)c(OC)c4)c2c1)CCCC3 | active: 10 µM |
| CC/C(=C/c1sc2ccccc2[n+]1CC)SC | inactive |
| Cc1cccc(NC(=O)c2ccc3nc(CCc4ccccc4)oc3c2)c1C | inconclusive: 0.891 µM [inhibitor, full curve] |
| O=C(Nc1cccc(C(=O)Nc2ccc(S(=O)(=O)O)c3cc(S(=O)(=O)O)cc(S(=O)(=O)O)c23)c1)Nc1cccc(C(=O)Nc2ccc(S(=O)(=O)O)c3cc(S(=O)(=O)O)cc(S(=O)(=O)O)c23)c1 | inactive |

— PubChem BioAssay AID1460 (National Center for Advancing Translational Sciences (NCATS), 2008)
